Measured values taken from PubChem BioAssay AID686979 (National Center for Advancing Translational Sciences (NCATS), 2013).
In all, about 420,000 compounds went through this assay and about 50,000 (12%) were called active. Inconclusive means that the source gave no clear call. Such entries were picked first, then a sample of the others. Calls come from the whole dose curve; as a rule, active = well fitted inhibition curve with a large enough effect; inconclusive = small, poorly fitted or top-dose-only effect; inactive = flat fitted curve, though single readings scatter. Potencies of inconclusive entries are left out as doubtful fits.

assay: qHTS for Inhibitors of human tyrosyl-DNA phosphodiesterase 1 (TDP1): qHTS in cells in presence of CPT; conditions: chicken DT40 Tdp1-/-;hTDP1 cells + 20 nM CPT, ATP luminescence, 48 h; activity change, negative = growth inhibition: at 46.2 µM (top of the series) unless noted; note: nearly all actives have a fitted effect of over 55% in size
Method in brief: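 Chicken DT40 Tdp1-/- cells stably complemented with human TDP1 were seeded at 400 cells/well in medium containing 20 nM camptothecin, exposed to pin-transferred compounds, and grown at 37 °C for at least 48 hr. Viability was read as ATP luminescence.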
% is set by controls: 0 for no effect and ±100 for the full control effect; potency is the fitted concentration of half-maximal effect; tags give direction and shape of the fitted curve.

SMILES | Potency | activity change, negative = growth inhibition
CCc1ccc(-c2cc(C)no2)cc1S(=O)(=O)N1CCN(c2ccccc2OC)CC1 | inconclusive [inhibitor, single point] | 
O=C(N/N=C/c1ccc([N+](=O)[O-])s1)c1cccc(Br)c1 | active: 9.2 µM | 
Cc1ccc(-c2noc(CN(C)C(=O)c3ccoc3C)n2)cc1 | inconclusive [inhibitor, single point] | 
COc1ccc2oc(C(=O)OCC(=O)NC3(C#N)CCCC3)c(C)c2c1 |  | inactive: -4%
Cc1ccc(F)c(NC(=O)c2c(-c3ccccc3)noc2C)c1 | inconclusive [inhibitor, partial curve] | 
COC(=O)c1c(O)cc(C(C)(C)C)n(-c2ccc(F)cc2)c1=O |  | inactive: -17.1%
CCOC(=O)COc1c(Cl)cc(/C=C2\N=C(C)OC2=O)cc1OC | inconclusive [inhibitor, single point] | 
Cc1ccc2cc(CN(Cc3ccc4c(c3)OCO4)Cc3nnnn3Cc3ccco3)c(=O)[nH]c2c1C | inconclusive [inhibitor, single point] | 
COc1cc(CNCCCN2CCOCC2)ccc1OCC(=O)Nc1cccc(C(F)(F)F)c1 | inconclusive [inhibitor, single point] | 
Cc1ccc(-n2c(SCC(=O)NCC3CCCO3)nc3n[nH]c(C)c3c2=N)cc1Cl (configuration not stated) | active: 9.2 µM | 
Cc1ccc(C(=O)C(OC(=O)CNS(=O)(=O)c2ccccc2)c2ccccc2)cc1 (configuration not stated) |  | inactive: 4.18%
Cc1nc(N2CCOCC2)c2c(C)c(C(=O)Nc3ccc(C(F)(F)F)cc3)sc2n1 | inconclusive [inhibitor, single point] | 
O=C(NCCC(=O)N(CCc1ccccc1)Cc1ccccc1)c1ccccc1Cl | inconclusive [inhibitor, partial curve] | 
CCOc1cccc(C2C(C(=O)c3cccs3)=C(O)C(=O)N2Cc2cccnc2)c1 (configuration not stated) |  | inactive: -7.65%
CCC1CCCCN1C(=O)Cn1c(=O)cc(C(F)(F)F)c2c(C)nn(C)c21 (configuration not stated) | inconclusive [inhibitor, single point] | 
COc1ccc(OC)c(NC(=O)Cc2c(C(=O)O)n(C)c3ccc(C)cc23)c1 |  | inactive: -29.6%
COc1ccc(Cl)cc1NC(=O)CSc1nnc(-c2ccco2)o1 |  | inactive: 0.949%
COc1ccc2nc(-c3ccccc3)[nH]c2c1 | inconclusive [inhibitor, single point] | 
CN1OC[C@@H]2CN[C@H](c3cccc(-c4ccc(C#N)cc4)c3)C[C@@H]21 | inconclusive [inhibitor, single point] | 
CC(OC(=O)CCNS(=O)(=O)c1ccc(Cl)cc1)C(=O)N(C)Cc1ccccc1 (configuration not stated) | inconclusive [inhibitor, single point] | 
COc1ccc(Cl)cc1NS(=O)(=O)c1cccc(C(=O)NCC(c2ccco2)N2CCCC2)c1 (configuration not stated) | inconclusive [inhibitor, single point] | 
CC(C)c1ccc(C(=O)NC(=S)Nc2ccc3[nH]c(=O)[nH]c3c2)cc1 |  | inactive: -1.61%
Cc1cccnc1CN1CCN(Cc2nc(Cc3cccc(F)c3)no2)CC1 |  | inactive: -5.69%

SMILES | Potency | activity change, negative = growth inhibition
c1ccc(CN2C3=NCCCN3c3ccccc32)cc1 |  | inactive: -16%
O=C1c2[nH]nc(-c3ccccc3O)c2C(c2ccc(F)cc2)N1CCO (configuration not stated) | inconclusive [inhibitor, single point] | 
C#CCOCCOCCOCCNc1nc(N2CCN(C(=O)CCCCCCCCCCNC(=O)[C@@H](CCSC)n3cc(CCO)nn3)CC2)nc(N2CCN(C(=O)CCCCCCCCCCNC(=O)[C@@H]([C@H](C)O)n3cc(C)nn3)CC2)n1 | active: 6.51 µM | 
Cc1ccc(N(C(=O)Cn2nnc(-c3ccc(C)o3)n2)C(C(=O)NC2CCCC2)c2ccco2)cc1 (configuration not stated) | inconclusive [inhibitor, single point] | 
CCOC(=O)c1cc(-c2ccc(OC)cc2)n(CCC(=O)Nc2nc3ccc(OCC)cc3s2)c1C | active: 16.4 µM | 
COc1ccc(-c2nc(SCC(=O)N3CCCCC3C)n[nH]2)cc1 (configuration not stated) | inconclusive [inhibitor, single point] | 
O=[N+]([O-])c1ccc(N2CCN(C(=S)NC3CCCCC3)CC2)cc1 | active: 16.4 µM | 
COC(=O)c1cnn(-c2ccc(C(=O)Nc3cc(OC)c(OC)c(OC)c3)cc2)c1N | inconclusive [inhibitor, partial curve] | 
CCCCCCn1c(=O)n2n(c1=O)[C@@H]1CN(S(=O)(=O)c3ccc(C)cc3)C[C@]1(O)[C@@H](OC(=O)Nc1c(C)noc1C)C2 | inconclusive [inhibitor, single point] | 
Cc1cc(C(=O)NNc2ccc(C(C)C)cc2)n(C(C)(C)C)n1 | inconclusive [inhibitor, single point] | 
CCOC(=O)c1c(C)sc(-c2c(-c3ccc(OC)c(F)c3)[nH]c3[nH]c(=O)[nH]c(=O)c23)c1O | inconclusive [inhibitor, single point] | 
CCOC(=O)[C@@H]1[C@H]2COc3ccccc3[C@@H]2N2C(=O)N(c3ccc(Br)cc3)C(=O)[C@]12C |  | inactive: -9.66%
CCc1cccc2c(C(=O)C(NC(C)CC)c3ccccc3)c[nH]c12 (configuration not stated) | inconclusive [inhibitor, single point] | 
O=C(NC(=S)Nc1ccccn1)c1cccc([N+](=O)[O-])c1 | inconclusive [inhibitor, single point] | 
CCc1ccc(-n2c(=O)c3c(C)c(C(=O)N(C)C)sc3n(Cc3ccccc3C#N)c2=O)cc1 |  | inactive: -22%
CCc1ccccc1NC(=O)CSc1ncc(S(=O)(=O)c2ccc(C(C)C)cc2)c(N)n1 | inconclusive [inhibitor, single point] | 
COCc1cc(C)nc(OC)c1C(N)=O |  | inactive: 24.2%
CCc1cccc(C)c1Nc1c(-c2cccc(O)c2)nc2nc(C)cc(C)n12 | inconclusive [inhibitor, single point] | 
Cc1ccn2c(=O)c(NC(=O)c3ccc(Br)o3)c(C)nc2c1 |  | inactive: 1.04%
NC(=O)Nc1ccc(/C=C/c2ccnc3ccccc23)cc1 | inconclusive [inhibitor, single point] | 
NC(=O)CC1NC(=O)c2cc([N+](=O)[O-])cc(I)c2OCCC(C(N)=O)NC(=O)[C@@H]2CCCN2C1=O (some centres not stated) |  | inactive: 2.51%
Cc1ccc(C(=O)Nc2cccc(NC(=O)c3ccc(C)o3)n2)o1 |  | inactive: -26.6%
O=C(NC(=O)c1c(F)cccc1F)Nc1ccccc1SC(F)F | inconclusive [inhibitor, single point] | 

SMILES | Potency | activity change, negative = growth inhibition
CCOc1ccccc1C(=O)NC(C(=O)OCn1nnc2ccccc2c1=O)C(C)C (configuration not stated) | inconclusive [inhibitor, single point] | 
Cc1ccc(S(=O)(=O)CCC(=O)OC(C)C(=O)N2CCc3ccccc32)cc1 (configuration not stated) |  | inactive: -4.94%
COc1ccc(CCN(C)C(=O)CSc2ncnc3sccc23)cc1OC | inconclusive [inhibitor, partial curve] | 
OCCN1CCN(CCCN2c3ccccc3C=Cc3ccccc32)CC1 | active: 8.41 µM | 
Cc1cccc(NC(=O)CSc2nc3ccc(NC(=O)COc4ccccc4F)cc3s2)c1 | active: 16.4 µM | 
COc1ccc(-c2nc3ccc(Br)cn3c2CC(C)(C)C)cc1OC | inconclusive [inhibitor, single point] | 
COCc1c(C(=O)N2CC3CCC2C3)cnn1-c1nccc(-c2ccccc2OC)n1 (configuration not stated) |  | inactive: 3.81% [at 9.04 µM]
OC(CC1CC12c1ccccc1-c1ncccc12)(c1ccccc1)c1ccccc1 (configuration not stated) | inconclusive [inhibitor, single point] | 
Cc1cc(C(=O)CSc2nnc(-c3cccnc3)n2-c2ccccc2F)c(C)n1CC1CCCO1 (configuration not stated) |  | inactive: -24.1%
CC(=O)c1c(C)[nH]c(C(=O)COc2ccc3ccc(=O)oc3c2)c1C | inconclusive [inhibitor, single point] | 
NNC(=O)c1sccc1OCc1cccc(C(F)(F)F)c1 | active: 20.6 µM | 
O=C(NCC1CCCO1)c1ccc2c(c1)N(Cc1ccc(Cl)cc1)CCS2 (configuration not stated) | inconclusive [inhibitor, single point] | 
Oc1ccccc1-c1nnc(-c2ccc(C(F)(F)F)cc2)o1 | inconclusive [inhibitor, single point] | 
COC(=O)Cn1c(CN2CCc3ccccc3C2)nc2c1c(=O)n(C)c(=O)n2C | active: 13 µM | 
Cc1cc(NC(=S)N(CCN2CCOCC2)Cc2ccccc2F)ccc1Cl | inconclusive [inhibitor, single point] | 
O=C(CSc1ccc2nc(-c3ccccc3)cn2n1)Nc1cccc(F)c1 | inconclusive [inhibitor, single point] | 
CCOc1ccc(CCN2C(=O)C(=O)N([C@@H](Cc3ccc(O)cc3)CN3CCC[C@H]3CN3C(=O)C(=O)NC[C@@H]3CC(C)C)C[C@@H]2Cc2ccccc2)cc1 | inconclusive [inhibitor, single point] | 
NC(=O)c1ccsc1NC(=O)COC(=O)COc1ccccc1[N+](=O)[O-] |  | inactive: 0.961%
Cc1cccc(-c2noc(CN(C)C(=O)COc3ccccc3)n2)c1 | inconclusive [inhibitor, single point] | 
COc1ccc(N2C(=S)N(C(=O)c3ccccc3)C(=Nc3ccccc3)C2=Nc2ccccc2)cc1 | inconclusive [inhibitor, single point] | 
CS(=O)(=O)c1nc(-c2ccccc2)cc(C(F)(F)F)n1 | active: 1.03 µM | 
